# Source: PubChem BioAssay AID1963576 (National Center for Advancing Translational Sciences (NCATS), 2024)
# Among all 46,000 compounds or so, about 60 (0.1%) were called active. Inconclusive results (about 3%) are left out. The call rests on the fitted dose curve; in most records, active means well fitted inhibition curve with a large enough effect; inconclusive means small, poorly fitted or top-dose-only effect; inactive means no such curve, though single readings can be large or run the other way. Some of the results follow.
# Test: Primary qHTS assay for Inhibitors of ovarian cancer metastasis using an organotypic tumor microenvironment (TME) model. Further: nearly all actives have a fitted effect of over 65% in size.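 On Potency: count of GFP cancer cells still attached after washing and fixation.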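 On activity change, negative = inhibition: plate controls were DMSO wells for no effect and tomatine positive control wells for full effect.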
# Conditions: SKOV3ip1-GFP adhesion/invasion on 3D omental model, fluorescence; series mostly up to 45.8 µM; activity change, negative = inhibition: at the top concentration
# Procedure, shortened: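 A 3D layer of primary human omental fibroblasts, mesothelial cells, fibronectin and collagen I, grown 48 hr, received SKOV3ip1-GFP cells in serum-free medium plus compounds at 0.36-46 umol/L. After 2 hr RT and 16 hr 37 C, fixed adherent GFP cells were counted; normalized to DMSO and tomatine.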
# Potency means the concentration at half of the fitted maximal effect.
Structure (SMILES),"activity change, negative = inhibition",outcome,Potency
CCc1nnc2c(NCc3ccccc3OC)nc3ccccc3n12,inactive: 8.37%,–,–
CCOc1ccc(CC(=O)Nc2nnc3n2CCS3)cc1,–,inactive,–
CCC(=O)N1CCc2cc(S(=O)(=O)NCCC(=O)Nc3ccc(OC)c(Cl)c3)ccc21,–,inactive,–
Cc1nn(CCCC(=O)NCc2ccccc2)c(=O)c2nn(-c3ccccc3)c(C)c12,–,inactive,–
COC(=O)c1sc2cccc(F)c2c1S(=O)(=O)Nc1cc(OC)cc(OC)c1,–,inactive,–
O=C(CSc1nc2ccccc2c(=O)n1CCC(=O)NC1CCCCC1)Nc1ccccc1Cl,inactive: 1.97%,–,–
Cc1c(C(=O)NCc2ccc(N(C)C)cc2)oc2c1-c1nn(Cc3cccc(Cl)c3)cc1CC2,–,inactive,–
O=C(COc1ccccc1)Nc1ccc(S(=O)(=O)N(Cc2ccccc2)c2ccccc2)cc1,inactive: -10.7%,–,–
Cc1cc2c(cc1S(=O)(=O)N1CCC(C)CC1)OCC(=O)N2,inactive: 2.01%,–,–
COCCN1Cc2cccc(C(=O)Nc3ccc(C)cc3C)c2C1=O,–,inactive,–
Cc1c(Cl)cccc1NC(=O)c1cnc2sc(N3CCCC3)nn2c1=O,inactive: -5.65%,–,–
Cc1ccc(NC(=O)Cn2c(=O)n(CCCCCC(=O)NCc3ccc(F)cc3)c(=O)c3sccc32)c(C)c1,inactive: 0.309%,–,–
CCN(C(=O)C1CCN(S(=O)(=O)c2ccc3c(c2)CCCN3C(=O)C2CCC2)CC1)c1cccc(C)c1,inactive: -6.04%,–,–
COC(=O)CNC(=O)C(Cc1ccccc1)NS(=O)(=O)c1ccc2c(c1)c(=O)n(C)c(=O)n2C (stereo unspecified),inactive: -3.56%,–,–
COc1ccc(S(=O)(=O)c2cn(C)c3cc(N4CCCC4)c(F)cc3c2=O)cc1,inactive: 9.35%,–,–
COc1cccc(CNC(=O)c2cnc(N3CCCC3)nc2C)c1,–,inactive,–
Cc1ccc(CNC(=O)c2ccc3c(c2)N(Cc2ccccc2F)C(=O)c2ccccc2S3(=O)=O)cc1,inactive: -6.36%,–,–
O=S(=O)(c1ccc2ccccc2c1)n1nc(-c2ccco2)nc1NCc1cccc(Cl)c1,inactive: -6.18%,–,–
CCCC12CN3CC(CCC)(CN(C1)C3c1c[nH]c3ccccc13)C2=O (stereo unspecified),inactive: -4.59%,–,–
Cc1ccc(-c2nnc(SCC(=O)N3CCc4ccccc43)o2)cc1,inactive: 3.63%,–,–
COc1ccc(-c2nc(-c3ccccc3)c(-c3ccccc3)[nH]2)cc1Br,inactive: 1.24%,–,–
CCOc1cc(CNCCSc2nnnn2-c2ccccc2)cc(Cl)c1OC,inactive: -8.54%,–,–
CC(C)Oc1ccc(CNS(=O)(=O)c2cnc(N)nc2)cc1,–,inactive,–
CCOc1ccc(CCNC(=O)Cn2nnc(-c3ccc(OC)c(OC)c3)n2)cc1OCC,–,inactive,–

Structure (SMILES),"activity change, negative = inhibition",outcome,Potency
CCCCNc1nc(Oc2ccc(=O)n(C)n2)nc(N(C)C)n1,inactive: 6.73%,–,–
CCCc1nn2c(=O)cc(COC(=O)c3ccc(NC(=O)C(C)Oc4ccccc4)cc3)nc2s1 (stereo unspecified),inactive: 2.84%,–,–
CSc1nc(-c2ccc(F)cc2)nc2c1Cc1c(CO)cnc(C)c1O2,inactive: 0.89%,–,–
O=C(CN1C(=O)C2(SCC(=O)N2c2ccccc2)c2ccccc21)NCc1ccccc1Cl (stereo unspecified),–,inactive,–
O=C(NC1CCCCC1)c1ccc2c(c1)N(Cc1ccccc1)C(=O)c1ccccc1S2,inactive: 3.78%,–,–
Cc1ccc2nc(-c3ccc(NC(=O)COc4c(C)ccc(C)c4C)cc3)sc2c1,inactive: 1.39%,–,–
CC(C)(C#N)c1cc(Cn2cncn2)cc(C(C)(C)C#N)c1,inactive: 17.6%,–,–
O=C(CSc1cn(CC(=O)N2CCCCC2)c2ccccc12)Nc1ccccc1F,inactive: -4.53%,–,–
COc1ccccc1-c1noc(CSc2nc3ccc(C)cc3[nH]2)n1,inactive: -11.9%,–,–
COc1cc2nccc(Oc3ccc(NC(=O)Nc4cc(C)on4)c(Cl)c3)c2cc1OC,inactive: 4.65%,–,–
COc1ccc(C(=O)c2cn(Cc3ccc(C)cc3)c3cc4c(cc3c2=O)OCO4)cc1,inactive: -44.4%,–,–
CCOc1ccccc1NC(=O)CSc1nccn1-c1ccc(Cl)cc1,–,inactive,–
CC(CNC(=O)C1CCN(Cc2cc3ccccc3n2Cc2ccccc2)CC1)c1ccccc1 (stereo unspecified),–,inactive,–
CCc1ccc(-c2cc3c(N4CCN(c5ccccc5)CC4)nccn3n2)cc1,inactive: -19.1%,–,–
COc1cccc(C(=O)n2nc(-c3ccco3)nc2NCc2cccs2)c1,inactive: 5.02%,–,–
Cc1cccc(CN2C(=O)c3ccccc3S(=O)(=O)c3ccc(C(=O)N4CCN(c5cc(C)ccc5C)CC4)cc32)c1,inactive: 4.95%,–,–
COc1ccc(Br)cc1CNC(=O)c1ccc2c(c1)nc1n2CCCCC1,inactive: -4.3%,–,–
Cc1cc(C)cc(N2CCn3c2nc2c3c(=O)n(CCc3ccccc3)c(=O)n2C)c1,inactive: -4.53%,–,–
COc1ccc(N(CC(=O)NCc2ccc(C)cc2)S(=O)(=O)c2c(C)[nH]c(=O)[nH]c2=O)cc1,inactive: -8.02%,–,–
Cc1c(C(=O)NCc2ccccc2Cl)sc2nc3n(c(=O)c12)CCC3,inactive: -9.44%,–,–
COc1cccc(N2CCN(Cc3nnc(-c4ccc5c(c4)OCO5)o3)CC2)c1,inactive: -5.24%,–,–
CC(C)(C)C1CCc2c(sc(NC(=O)c3ccncc3)c2C(=O)Nc2ccccc2Cl)C1 (stereo unspecified),inactive: 7.81%,–,–
COc1ccc(NS(=O)(=O)c2ccc(NS(=O)(=O)c3ccc4c(c3)OCCO4)cc2)cc1,–,inactive,–
COc1ccc(NC(=O)N2CCN(c3cc(-c4noc(C)n4)ccc3C)CC2)c(OC)c1,–,inactive,–

Structure (SMILES),"activity change, negative = inhibition",outcome,Potency
COc1ccc(N2CCN(C(=O)CCn3cnc4onc(-c5ccc(F)cc5)c4c3=O)CC2)cc1,–,inactive,–
Cc1cccc(-c2nc3nc(C)cc(N4CCN(c5ccccc5)CC4)n3n2)c1,–,inactive,–
Cc1ccc(-c2nc3c4ccccc4n(Cc4cccc(Cl)c4)c(=O)n3n2)cc1,inactive: 16.5%,–,–
COc1ccc(OC)c(CNC(=O)C2COc3ccccc3C2)c1 (stereo unspecified),inactive: 3.4%,–,–
COc1ccc2nc(N3CCN(C(=O)c4ccco4)CC3)sc2c1,inactive: -6.95%,–,–
CCc1ccc(S(=O)(=O)c2nnn3c2nc(N2CCCC(C)C2)c2cc(Cl)ccc23)cc1 (stereo unspecified),inactive: -22.5%,–,–
CCOC(=O)Cc1ccc(NC(=O)N2CC(CC)Oc3ccccc32)cc1 (stereo unspecified),–,inactive,–
CCN1CCN(CCCNC(=O)Cn2nc(C)n3c(cc4cc(C)ccc43)c2=O)CC1,inactive: 6.63%,–,–
Clc1ccc(CSc2nc3ncccc3[nH]2)cc1,inactive: 3.23%,–,–
CCCc1ccc(NC(=O)C2CCN(c3cnccn3)CC2)cc1,inactive: -1.42%,–,–
Cc1ccc(NC(=O)Cc2ccc(NC(=O)N3CCCCc4ccccc43)cc2)cc1,inactive: 38.2%,–,–
COc1cccc(Cn2cc(S(=O)(=O)c3ccc(C)cc3)c(=O)c3cc4c(cc32)OCO4)c1,inactive: -13.8%,–,–
Cc1ccc(NC(=O)CSc2[nH]c(=O)ncc2C)cc1,inactive: -0.266%,–,–
COc1ccc(NC(=O)c2ccco2)cc1NC(=O)COc1ccc(C)cc1C,inactive: -6.36%,–,–
O=C(Nc1nonc1-c1ccc(Br)cc1)c1ccco1,inactive: -1.2%,–,–
Cc1nc2ccccc2n1CCc1nc2c3ccccc3nc(SCC(=O)Nc3ccc(C(C)C)cc3)n2n1,inactive: -1.84%,–,–
CSc1cccc(NC(=O)Cn2nnc(C(=O)NCCc3ccccc3)c2N)c1,inactive: 6.64%,–,–
CCN1CCN(C(c2ccccc2)c2c(O)cc(C)n(CCOC)c2=O)CC1 (stereo unspecified),inactive: 2.68%,–,–
Cc1cc(Cl)ccc1NC(=O)CN1C(=O)C(=O)c2ccccc21,inactive: -7.43%,–,–
Cc1cccc(N2CCN(c3ccc(C(=O)O)cc3NC(=O)c3ccccc3F)CC2C)c1 (stereo unspecified),–,inactive,–
Cn1c(=O)n(CCc2ccccc2)c(=O)c2c1nc1n2CCN1c1ccc(Cl)cc1,–,inactive,–
COc1ccc(S(=O)(=O)Cc2ccc(C(=O)NC3CCCCC3)o2)cc1,inactive: 1.57%,–,–
COC(=O)C1=C(c2ccccc2)c2ccccc2S(=O)(=O)N1CC(=O)Nc1ccccc1C(F)(F)F,inactive: -6.15%,–,–
CCCCC(=O)Nc1ccc(C(=O)OCc2cc(=O)n3nc(C4CC4)sc3n2)cc1,inactive: -3.12%,–,–

Structure (SMILES),"activity change, negative = inhibition",outcome,Potency
CC(C)CC(=O)Nc1c(C(=O)N2CCN(c3ccccc3F)CC2)oc2ccccc12,inactive: -2.46%,–,–
CCN(CC)c1ccc(C(=O)NCc2ccc3c(c2)CCN3C(C)=O)cc1,inactive: -9.26%,–,–
Cc1cc(C)c2c(-n3cccc3)c(C(=O)NCCc3ccccc3)sc2n1,inactive: -8%,–,–
CC(=O)c1ccc(N2CCN(C(=O)Nc3cccc(F)c3)CC2)cc1,–,inactive,–
CC(C(=O)Nc1ccccc1C(F)(F)F)n1nc(-c2ccccc2)c2c(c1=O)CCCC2 (stereo unspecified),inactive: 54.1%,–,–
CCOC(=O)C(Cc1c[nH]c2ccccc12)NC(=O)COc1ccc(Cl)cc1 (stereo unspecified),inactive: -11.3%,–,–
Cc1c(Cl)cccc1NC(=O)CN1C(=O)CCn2nc(-c3cccn3C)cc21,inactive: 6.91%,–,–
COCCN(CCOC)C(=O)c1cc2c(=O)n3ccccc3nc2n1C,inactive: 0.0494%,–,–
Cc1ccc2c(=O)c(C(=O)c3ccccc3)cn(CC(=O)Nc3ccccc3)c2n1,inactive: 18.2%,–,–
CC(C)Oc1ccc(CNC(=O)CCCn2c(=O)c3cccn3c3cccnc32)cc1,inactive: 1.43%,–,–
O=C(NCc1ccc2c(c1)CCN2C(=O)c1ccncc1)c1ccc(Cl)cc1,inactive: -10.5%,–,–
COc1cccc(-c2nnc3n(Cc4ccccc4Cl)c(=O)c4ccccc4n23)c1O,inactive: 5.38%,–,–
COc1cc(-c2nc3ccc(C)cn3c2Nc2ccc(Cl)cc2)ccc1O,–,inactive,–
O=C(CSc1nc(-c2ccccc2)cn1-c1ccccc1)Nc1ccccc1,inactive: 10.5%,–,–
CCn1c(NCc2cccc(Cl)c2)nc2ccccc21,–,inactive,–
COc1ccc(-n2c(=O)c3ccc(C(=O)NCc4ccc(C)cc4)cc3n(CC(=O)Nc3ccc(C)cc3)c2=O)cc1,–,inactive,–
Cc1ccc(Cn2c(C(=O)O)c(CNCCc3ccco3)c3ccc(C)cc32)cc1,–,inactive,–
Cc1cc(C)c(C(=O)Nc2ccccc2)c(SCC(=O)Nc2ccc(Br)cc2C)n1,inactive: 3.39%,–,–
COc1ccc(-n2cc(C(=O)NCc3cccc(OC)c3)c3ccccc3c2=O)cc1,inactive: -4.91%,–,–
COCCCNC(=O)C1CCN(c2cc(C)nc3c(-c4ccc(OC)c(OC)c4)c(C)nn23)CC1,–,inactive,–
CCOc1cc(-c2nc(-c3ccc(-c4ccc(OC)cc4)nc3OC)no2)cc(OCC)c1OCC,inactive: 1.93%,–,–
COc1ccccc1NC(=O)CCn1c(=O)oc2cc(Cl)ccc21,inactive: -9.12%,–,–
COc1ccc(Cl)cc1NC(=O)c1nn(C)c2c1CS(=O)(=O)c1ccccc1-2,inactive: 1.63%,–,–
COC(=O)[C@]12CCC(C)(C)C[C@@H]1[C@@H]1C(=O)C=C3[C@@]4(C)C=C(C#N)C(=O)C(C)(C)[C@@H]4CC[C@@]3(C)[C@]1(C)CC2,–,–,active: 2350 nM
